In all, about 110,000 compounds were measured (“z-score”: median about -0.1, highest 2% from about 2 on). The list shows a part of the results. Activity calls are given as the source filed them.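 How the source made its calls: active means z-score in the third read window above 3 or below -3; inactive means the rest.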

The experiment concerns the target Metabotropic glutamate receptor 8 (Rattus norvegicus) (UniProt P70579). Nature of the experiment: rat mGluR8 modulators via GIRK flux, primary screen, cell-based, thallium flux, HTS (AID 488969). Conditions: HEK293 rat mGluR8, GIRK (G protein-gated inwardly rectifying potassium channel) thallium flux, FluoZin2; at 10 µM; stronger effect = higher value; submaximal glutamate (EC20) added with thallium.
Chain of UniProt P70579 (P70579 whole entry, looked up): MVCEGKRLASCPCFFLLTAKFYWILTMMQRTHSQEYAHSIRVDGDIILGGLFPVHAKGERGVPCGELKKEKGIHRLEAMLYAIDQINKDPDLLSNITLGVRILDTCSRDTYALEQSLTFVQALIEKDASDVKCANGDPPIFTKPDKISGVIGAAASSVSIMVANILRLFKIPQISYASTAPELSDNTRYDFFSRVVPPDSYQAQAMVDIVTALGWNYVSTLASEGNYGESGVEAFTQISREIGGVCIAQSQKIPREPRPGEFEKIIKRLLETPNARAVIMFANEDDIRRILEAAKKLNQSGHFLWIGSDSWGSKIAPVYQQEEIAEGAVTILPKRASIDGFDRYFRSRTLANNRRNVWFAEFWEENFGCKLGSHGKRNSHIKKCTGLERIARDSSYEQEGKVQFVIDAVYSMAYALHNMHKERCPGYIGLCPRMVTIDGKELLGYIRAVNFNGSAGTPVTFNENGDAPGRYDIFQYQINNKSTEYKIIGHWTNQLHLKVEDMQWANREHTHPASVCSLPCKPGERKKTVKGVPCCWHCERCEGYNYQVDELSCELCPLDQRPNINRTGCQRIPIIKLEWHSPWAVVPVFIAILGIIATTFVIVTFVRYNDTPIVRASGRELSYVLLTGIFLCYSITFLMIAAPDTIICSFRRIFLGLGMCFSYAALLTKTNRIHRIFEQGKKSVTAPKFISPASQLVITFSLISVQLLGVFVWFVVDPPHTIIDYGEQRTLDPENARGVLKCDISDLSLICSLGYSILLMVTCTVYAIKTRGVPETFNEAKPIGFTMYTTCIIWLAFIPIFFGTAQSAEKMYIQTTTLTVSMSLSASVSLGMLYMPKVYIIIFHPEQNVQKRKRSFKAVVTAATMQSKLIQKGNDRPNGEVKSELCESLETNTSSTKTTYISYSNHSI
Consider `Cc1ccc(NC(=O)CSc2ccccc2NC(=O)c2cccc(Cl)c2)cc1Cl`, for which the z-score was found to be 0.0757. As for `CCOCC(=O)Nc1sc2c(c1C(=O)OCC)CCCC2`, the figure is -0.324; as for `O=C(COC(=O)c1ccc(S(=O)(=O)NCc2ccco2)cc1)Nc1ccc(OC(F)F)cc1`, 0.342; as for `Cc1ccc(S(=O)(=O)N/N=C/c2cc(Br)c(C)o2)cc1`, -0.0995. As for `O=C1CC(c2ccccc2)CC(O)=C1C=NCc1ccccc1Cl` (stereo not given), the figure is -0.251; as for `CCCCN(C(=O)c1ccco1)c1nnc(-c2cc(OC)c(OC)c(OC)c2)s1`, -0.288; as for `O=C(O)CCCc1nc(-c2ccccc2)no1`, -0.525. As for `CCS(=O)(=O)N1CCC(C(=O)N2CCOCC2)CC1`, the figure is 0.318; as for `Cc1cc(C)c(C#N)c(SCC(=O)c2ccc(Cl)cc2Cl)n1`, 1.51; as for `Cn1c(CCNC(=O)c2ccccc2)nc2ccccc21`, -0.296.

With `CC(=O)c1cc2c(cc1NC(=O)CN1CCN(c3cccc(C(F)(F)F)c3)CC1)OCO2`, the z-score was 0.184. Consider `CC(/C=N/NC(=O)Cc1cc(=O)[nH][nH]1)=C\c1ccccc1`, for which the z-score was determined as 0.0693.

`CC1=Nc2ccc(C)cc2N(Cc2ccccc2)C(=O)C1` displayed a z-score of -0.355. As for `CCOc1cc(/C=C/c2nc3cc(C)c(C)cc3s2)ccc1OCC(=O)N1CCOCC1`, the figure is -0.0595. As for `O=C(CC1SC(N2CCCCC2)=NC1=O)Nc1cccc(C(F)(F)F)c1` (stereo not given), the figure is 0.147; as for `[O-][N+]12CCN(CC1)c1ccccc12`, 0.065; as for `Cc1cc(NC(=S)NC(=O)C2CC2)ccc1Br`, 0.599.

On to `C=CCn1c(=O)c2ccccc2n2c(SCC(=O)c3ccccc3)nnc12`, for which the z-score is -0.739. As for `C=CCN1C(=O)CS/C1=N\S(=O)(=O)c1ccc(Cl)cc1`, the figure is -0.277; as for `Nc1nc(-c2cccnc2)nn1C(=O)CCc1ccccc1`, -0.218. `O=C(O)c1ccc(N2C(=O)C3ON(c4ccccc4)C(c4ccccc4F)C3C2=O)cc1` (stereo not given) had a z-score of 0.0668. As for `Cc1cc(C)c(-c2noc(C(=O)OC(C)(C)C)c2C(=O)OC(C)(C)C)c(C)c1`, the figure is -0.139; as for `COc1cc(CN2C(=O)C(NC(=O)c3ccco3)(C(F)(F)F)C3=C2CC(C)(C)CC3=O)cc(OC)c1` (stereo not given), -0.316; as for `CSc1nnnn1-c1cccc(O)c1`, 0.00114. Under `CC(Oc1ccc(C(=O)NCCc2ccccc2)cc1)C(=O)O` (stereo not given) stands -0.223; under `CCOC(=O)Nc1nnc(-c2ccccc2OC)s1`, -0.566; under `Cc1cccc(-c2noc(CCC(=O)NCC3CCCO3)n2)c1` (stereo not given), 0.0809. In turn, `Cc1ccc(C)c(NC(=O)CN(C)C(=O)COc2ncnc3sccc23)c1` came in with a z-score of -0.0428. As for `COc1cccc2[nH]c3c(N4CCCCC4)ncnc3c12`, the figure is 0.763; as for `CCC1(CC)Cc2ccccc2C(N)=C1C#N`, -0.919; as for `CCN(CC)C(=S)SCC(=O)Nc1ccc(F)cc1`, -0.211.

In turn, `Cc1ccccc1C(=O)Nc1ccccc1Sc1ccccc1` registered a z-score of -0.151.

With `N#CCc1c(C#N)c(N)nc(N2CCN(c3ccc(F)cc3)CC2)c1C#N`, the z-score was -0.789. Under `CC(C)(C)c1ccc(CSc2nnc(-c3ccccc3NC(=O)c3ccccc3)o2)cc1` stands -0.0927; under `Cc1nc(SC2CCOC2=O)c2c(C)c(C)sc2n1` (stereo not given), active: 4.12; under `COc1cccc(C(=O)CN(C(=O)c2ccc(Cl)cc2Cl)N2C(=O)c3ccccc3C2=O)c1`, -0.0496. Under `COc1ccc(-c2cc(=O)n(-c3nc4ccccc4[nH]3)[nH]2)cc1` stands 0.773; under `CCOC(=O)N1CCN(S(=O)(=O)c2ccc(OCC)c3ccccc23)CC1`, -0.816; under `Cc1ccc(NC2=C(C(=O)c3ccccc3)N(C)S(=O)(=O)c3ccccc32)cc1`, -0.266. As for `C/C(Cl)=C\Cn1c(Nc2cccc(C)c2)nc2c1c(=O)n(C)c(=O)n2C`, the figure is -1.56. The compound `CCCCC1CCC(C(=O)Nc2c(C)n(C)n(-c3ccccc3)c2=O)CC1` (stereo not given) had a z-score of 0.437. Under `COCC(C)NC(=O)c1ccc(-n2nc(C(F)(F)F)cc2-c2cccs2)cc1` (stereo not given) stands -0.186; under `Cc1nc(NCc2ccco2)nc2c1C(=O)CC(C)C2` (stereo not given), -0.121; under `COc1cccc(OC)c1C(=O)NC(C)C12CC3CC(CC(C3)C1)C2` (stereo not given), -0.239. As for `CCOc1cc(C2C3=C(CCCC3=O)Nc3nc(C(=O)OC)nn32)ccc1OC` (stereo not given), the figure is 0.0283; as for `CCCC(=O)N=C1SC2CS(=O)(=O)CC2N1c1ccc(-c2nc3ccc(C)cc3s2)cc1` (stereo not given), -0.238; as for `CCn1nnnc1SCC(=O)Nc1cc(C)on1`, -0.103. As for `CCOC(=O)CNC(=O)CSc1ncnc2c1cnn2-c1ccccc1`, the figure is -0.0413.

Compound `CCN(CC)C(=O)CSC1=Nc2ccccc2C2=NC(c3ccccc3)C(=O)N12` (stereo not given) gave a z-score of -0.599.

As to `Cc1cc(C)cc(NC(=O)Nc2ccc3c(c2)N(C)C(=O)CS3)c1`, the z-score came to 0.371. Regarding `CCN(C(=O)CSc1nncn1-c1ccccc1)c1c(N)n(Cc2ccccc2)c(=O)[nH]c1=O`, the z-score was -0.271.

On to `Cc1c(CNC2CCCC(C)C2C)c(C(=O)O)c(C)n1Cc1ccccc1` (stereo not given), for which the z-score was -0.415.

As to `C=CCn1cc(/C=N/Nc2nc3ccccc3[nH]2)c2ccccc21`, the z-score was -0.32. As for `CC(=O)Nc1ccc(NC(=O)C2CC(=O)N=C(N)S2)cc1` (stereo not given), the figure is -0.158; as for `COc1cc(Br)cc2cc(C(=O)NCC3CCCO3)c(=O)oc12` (stereo not given), -0.0701. Regarding `O=C(CC1NC(=O)NC1=O)Nc1ccc(Cl)cc1` (stereo not given), the z-score was 0.084.

In turn, `CCC(C)(C)n1nnnc1C(c1cc2cc(C)ccc2[nH]c1=O)N1CCCC1` (stereo not given) gave a z-score of -0.462.

The compound `CCCCCCSc1nc(O)c(C2OC(=O)c3c2ccc(OC)c3OC)c(=O)n1-c1ccccc1` (stereo not given) had a z-score of -1.44.

Take `CC(=O)NCCC(=O)Nc1cc(F)ccc1C`: the z-score is -0.222.

Compound `O=c1[nH]c(CN2CCN(S(=O)(=O)c3ccccc3C(F)(F)F)CC2)nc2sc3c(c12)CCCC3` gave a z-score of -0.148. Under `Cc1cc(NS(=O)(=O)c2ccc(NC(=O)NC(C)(C(F)(F)F)C(F)(F)F)cc2)no1` stands 0.394; under `Cc1cccc(NC(=O)CN2C(=O)CNC2=O)c1`, -0.642; under `Cc1nonc1C(=O)N/N=C/c1ccc(O)cc1`, -0.0268. Under `Cc1cc(N/N=C\c2ccccc2)nc(-c2ccccc2O)n1` stands 0.987; under `O=c1oc(-c2ccccc2NS(=O)(=O)c2ccc3ccccc3c2)nc2ccccc12`, -0.224. As for `COCC(C)n1c(SCC(=O)NNC(=O)c2ccc(F)cc2)nc2ccccc2c1=O` (stereo not given), the figure is 0.283. Consider `Cc1ccccc1C(OCCN(C)C)C1CCCCC1` (stereo not given), for which the z-score was 1.18. As for `COc1cc(OC)c(C(=O)Nc2ccccc2-c2ccccc2)cc1OC`, the figure is -0.424. For `COc1ccc(CNC(=O)C(c2ccco2)N(Cc2cccs2)C(=O)Cc2cccs2)cc1` (stereo not given), the z-score was -0.0856. Under `COc1ccc(CN2CCN(S(=O)(=O)c3ccc(F)cc3)CC2)cc1OC` stands -0.197.

The record behind these values is PubChem BioAssay AID488969 (Vanderbilt High Throughput Screening Facility, 2010).
